Some results are limits rather than exact numbers.

For orientation: IC50 means the concentration that gives 50% inhibition. Low readings indicate higher potency, high ones lower potency.

The assay concerns the target T1, biotinylated truncated STAT6 (123-632)-avi (Homo sapiens, UniProt P42226).
T1 sequence (P42226 123-632 limits assumed): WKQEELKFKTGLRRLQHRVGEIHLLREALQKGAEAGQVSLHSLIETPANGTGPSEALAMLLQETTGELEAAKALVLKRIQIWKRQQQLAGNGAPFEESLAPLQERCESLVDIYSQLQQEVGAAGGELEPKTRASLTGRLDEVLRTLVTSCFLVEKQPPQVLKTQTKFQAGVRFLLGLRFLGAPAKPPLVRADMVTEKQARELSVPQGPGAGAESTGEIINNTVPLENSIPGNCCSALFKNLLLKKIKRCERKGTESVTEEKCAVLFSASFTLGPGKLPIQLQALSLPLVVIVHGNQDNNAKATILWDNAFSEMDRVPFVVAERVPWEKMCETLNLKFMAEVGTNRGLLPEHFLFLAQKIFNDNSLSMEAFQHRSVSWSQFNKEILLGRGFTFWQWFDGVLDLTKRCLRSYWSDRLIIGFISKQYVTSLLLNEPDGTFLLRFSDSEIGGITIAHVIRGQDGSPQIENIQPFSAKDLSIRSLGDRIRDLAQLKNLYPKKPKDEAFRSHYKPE
Briefly: Homogenous Time-Resolved Fluorescence (HTRF) binding assay. As to conditions: 0.15 nM biotinylated truncated STAT6 (123-632)-avi, 20 nM fluorescein-labeled probe, 30 minutes at room temperature. In general terms: TR-FRET usually uses a lanthanide donor and a delayed reading to cut background.

`O=C(CCn1ccnn1)N1CCC=C(c2cc(-c3ccccc3)c3cc(C(=O)N4CCN(c5ncccc5OC5CC5)CC4)[nH]c3c2F)C1` [Example I-938] showed an IC50 of less than 100 nM.

`COc1ccccc1-c1cc(C2=CCCN(C(=O)CCn3ccnn3)C2)c(F)c2[nH]c(C(=O)N3CCN(c4ncc(C)cc4OC)CC3)cc12` [Example I-939] registered an IC50 of less than 100 nM.

`COc1ccccc1-c1cc(C2=CCCN(C(=O)CCn3ccnn3)C2)c(F)c2[nH]c(C(=O)N3CCN(c4ncc(C#N)cc4OC)CC3)cc12` [Example I-940] yielded an IC50 of less than 100 nM.

On to `COc1ccccc1-c1cc(C2=CCCN(C(=O)CCn3ccnn3)C2)c(F)c2[nH]c(C(=O)N3CCN(c4ncc(C(F)(F)F)cc4OC)CC3)cc12` [Example I-941], for which the IC50 is less than 100 nM.

Turning to `CCn1c(N2CCN(C(=O)c3cc4c(-c5ccccc5OC)cc(C5=CCCN(C(=O)CCn6ccnn6)C5)c(F)c4[nH]3)CC2)nc2ccccc21` [Example I-942], the IC50 is less than 100 nM.

Compound `COc1ccccc1-c1cc(C2=CCCN(C(=O)CCn3ccnn3)C2)c(F)c2[nH]c(C(=O)N3CCN(c4nc5ccccc5n4CC4CC4)CC3)cc12` [Example I-943] returned an IC50 of less than 100 nM.

Compound `COc1ccccc1-c1cc(C2=CCCN(C(=O)CCn3ccnn3)C2)c(F)c2[nH]c(C(=O)N3CCN(c4cnc5nccnc5c4C)CC3)cc12` [Example I-944] gave an IC50 of less than 100 nM.

Take `COc1ccccc1-c1cc(C2=CCCN(C(=O)CCn3ccnn3)C2)c(F)c2[nH]c(C(=O)N3CCN(c4ccc5nn(C)cc5c4C)CC3)cc12` [Example I-945]: the IC50 was 100 to 1000 nM.

With `COc1ccccc1-c1cc(C2=CCCN(C(=O)CCn3ccnn3)C2)c(F)c2[nH]c(C(=O)N3CCN(c4ncnc5[nH]cnc45)CC3)cc12` [Example I-946], the half-maximal inhibitory concentration (IC50) was less than 100 nM.

In the case of `COc1ccccc1-c1cc(C2=CCCN(C(=O)CCn3ccnn3)C2)c(F)c2[nH]c(C(=O)N3CCN(c4ccc5c(c4)Nc4ccccc4CC5)CC3)cc12` [Example I-947], the IC50 is 1000 to 10000 nM.

Turning to `COc1ccccc1-c1cc(C2=CCCN(C(=O)CCn3ccnn3)C2)c(F)c2[nH]c(C(=O)N3CCN(c4ccnc(Nc5ccc(C#N)cc5)n4)CC3)cc12` [Example I-948], the half-inhibitory concentration (IC50) was less than 100 nM.

Compound `COc1ccccc1-c1cc(C2=CCCN(C(=O)CCn3ccnn3)C2)c(F)c2[nH]c(C(=O)N3CCN(c4cc(C)cn5ncnc45)CC3)cc12` [Example I-950] yielded an IC50 of less than 100 nM.

The compound `COc1ccccc1-c1cc(C2=CCCN(C(=O)CCn3ccnn3)C2)c(F)c2[nH]c(C(=O)N3CCN(c4cccc5nonc45)CC3)cc12` [Example I-951] returned an IC50 of less than 100 nM.

`COc1ccccc1-c1cc(C2=CCCN(C(=O)CCn3ccnn3)C2)c(F)c2[nH]c(C(=O)N3CCN(c4cc5ccccc5nc4O)CC3)cc12` [Example I-952] showed an IC50 of less than 100 nM.

On to `COc1ccccc1-c1cc(C2=CCCN(C(=O)CCn3ccnn3)C2)c(F)c2[nH]c(C(=O)N3CCN(c4cc(F)c5ncccc5c4)CC3)cc12` [Example I-953], for which the IC50 is less than 100 nM.

Regarding `COc1ccccc1-c1cc(C2=CCCN(C(=O)CCn3ccnn3)C2)c(F)c2[nH]c(C(=O)N3CCN(c4cncc5cccnc45)CC3)cc12` [Example I-954], the IC50 is less than 100 nM.

`COc1cc2ncnc(N3CCN(C(=O)c4cc5c(-c6ccccc6OC)cc(C6=CCCN(C(=O)CCn7ccnn7)C6)c(F)c5[nH]4)CC3)c2cc1O` [Example I-955] had an IC50 of less than 100 nM.

For the compound `COc1cc(N2CCN(C(=O)c3cc4c(-c5ccccc5OC)cc(C5=CCCN(C(=O)CCn6ccnn6)C5)c(F)c4[nH]3)CC2)c2ccccc2c1` [Example I-957], the IC50 was 100 to 1000 nM.

`COc1cc(C)c(N2CCN(C(=O)c3cc4c(-c5ccccc5OC)cc(C5=CCCN(C(=O)CCn6ccnn6)C5)c(F)c4[nH]3)CC2)c(C)n1` [Example I-958] had an IC50 of 100 to 1000 nM.

In turn, `COc1ccccc1-c1cc(C2=CCCN(C(=O)CCn3ccnn3)C2)c(F)c2[nH]c(C(=O)N3CCN(c4c(C)ccc5[nH]ncc45)CC3)cc12` [Example I-959] came in with an IC50 of less than 100 nM.

As for `COc1ccc(N2CCN(C(=O)c3cc4c(-c5ccccc5OC)cc(C5=CCCN(C(=O)CCn6ccnn6)C5)c(F)c4[nH]3)CC2)cc1` [Example I-960], the IC50 was less than 100 nM.

As to `COc1ccccc1-c1cc(C2=CCCN(C(=O)CCn3ccnn3)C2)c(F)c2[nH]c(C(=O)N3CCN(c4ncc(N5CCCCC5)cc4OC4CC4)CC3)cc12` [Example I-961], the IC50 is less than 100 nM.

Regarding `COc1ccccc1-c1cc(C2=CCCN(C(=O)CCn3ccnn3)C2)c(F)c2[nH]c(C(=O)N3CCN(c4cc(OC)c5c(c4)nnn5C)CC3)cc12` [Example I-962], the IC50 is less than 100 nM.

The compound `COc1ccccc1-c1cc(C2=CCCN(C(=O)CCn3ccnn3)C2)c(F)c2[nH]c(C(=O)N3CCN(c4ccc5cn[nH]c5c4)CC3)cc12` [Example I-963] yielded an IC50 of less than 100 nM.

`COc1ccccc1-c1cc(C2=CCCN(C(=O)CCn3ccnn3)C2)c(F)c2[nH]c(C(=O)N3CCN(c4cc(C)cc(Br)c4OC)CC3)cc12` [Example I-964] registered an IC50 of 100 to 1000 nM.

Take `COc1ccccc1-c1cc(C2=CCCN(C(=O)CCn3ccnn3)C2)c(F)c2[nH]c(C(=O)N3CCN(c4c(O)ccc5ccccc45)CC3)cc12` [Example I-965]: the IC50 was in the range of 100 to 1000 nM.

`COc1ccccc1-c1cc(C2=CCCN(C(=O)CCn3ccnn3)C2)c(F)c2[nH]c(C(=O)N3CCN(c4nccc5[nH]ccc45)CC3)cc12` [Example I-966] had an IC50 of less than 100 nM.

In turn, `CCn1c(N2CCN(C(=O)c3cc4c(-c5ccccc5OC)cc(C5=CCCN(C(=O)CCn6ccnn6)C5)c(F)c4[nH]3)CC2)cc2ccccc21` [Example I-967] came in with an IC50 of 100 to 1000 nM.

As for `COc1ccccc1-c1cc(C2=CCCN(C(=O)CCn3ccnn3)C2)c(F)c2[nH]c(C(=O)N3CCN(c4ccccc4C(F)(F)F)CC3)cc12` [Example I-968], the IC50 lay within 100 to 1000 nM.

Consider `CCc1ccccc1N1CCN(C(=O)c2cc3c(-c4ccccc4OC)cc(C4=CCCN(C(=O)CCn5ccnn5)C4)c(F)c3[nH]2)CC1` [Example I-969], for which the IC50 is 100 to 1000 nM.

Regarding `COc1ccccc1-c1cc(C2=CCCN(C(=O)CCn3ccnn3)C2)c(F)c2[nH]c(C(=O)N3CCN(c4ccc(=O)n(C)c4)CC3)cc12` [Example I-971], the IC50 is less than 100 nM.

As to `COc1ccccc1-c1cc(C2=CCCN(C(=O)CCn3ccnn3)C2)c(F)c2[nH]c(C(=O)N3CCN(c4c(F)ccc5cnccc45)CC3)cc12` [Example I-972], the half-maximal inhibitory concentration (IC50) was less than 100 nM.

For the compound `COc1cccnc1N1CCN(C(=O)c2cc3c(-c4cccc(F)c4OC)cc(C4=CCCN(C(=O)CCn5ccnn5)C4)c(F)c3[nH]2)C(C)C1` (stereo not drawn) [Example I-973], the IC50 was in the range of 100 to 1000 nM.

With `COc1ccccc1-c1cc(C2=CCCN(C(=O)CCn3ccnn3)C2)c(F)c2[nH]c(C(=O)N3CCc4ncccc43)cc12` [Example I-974], the IC50 was less than 100 nM.

The compound `COc1ccccc1-c1cc(C2=CCCN(C(=O)CCn3ccnn3)C2)c(F)c2[nH]c(C(=O)N3Cc4ccc(C#N)cc4C3)cc12` [Example I-975] registered an IC50 of less than 100 nM.

On to `COc1ccccc1-c1cc(C2=CCCN(C(=O)CCn3ccnn3)C2)c(F)c2[nH]c(C(=O)N(C)Cc3ccc4c(c3)OCO4)cc12` [Example I-976], for which the IC50 was less than 100 nM.

`COc1ccccc1-c1cc(C2=CCCN(C(=O)CCn3ccnn3)C2)c(F)c2[nH]c(C(=O)N3CCc4cc(C(F)(F)F)ccc4C3)cc12` [Example I-977] yielded an IC50 of less than 100 nM.

As to `COc1ccccc1-c1cc(C2=CCCN(C(=O)CCn3ccnn3)C2)c(F)c2[nH]c(C(=O)N(C)C3Cc4ccccc4C3)cc12` [Example I-978], the IC50 lay in the range of 100 to 1000 nM.

On to `COc1ccc(NC(=O)c2cc3c(-c4ccccc4OC)cc(C4=CCCN(C(=O)CCn5ccnn5)C4)c(F)c3[nH]2)cn1` [Example I-979], for which the IC50 was 100 to 1000 nM.

`CCS(=O)(=O)N1CCN(C(=O)c2cc3c(-c4ccccc4OC)cc(C4=CCCN(C(=O)CCn5ccnn5)C4)c(F)c3[nH]2)CC1` [Example I-980] displayed an IC50 of less than 100 nM.

Turning to `COc1ccccc1-c1cc(C2=CCCN(C(=O)CCn3ccnn3)C2)c(F)c2[nH]c(C(=O)N3CCC(n4c(=O)[nH]c5ncccc54)CC3)cc12` [Example I-981], the IC50 lay in the range of 100 to 1000 nM.

In the case of `COc1ccccc1-c1cc(C2=CCCN(C(=O)CCn3ccnn3)C2)c(F)c2[nH]c(C(=O)N3Cc4cccc(F)c4C3)cc12` [Example I-982], the IC50 is more than 100000 nM.

On to `COc1ccccc1-c1cc(C2=CCCN(C(=O)CCn3ccnn3)C2)c(F)c2[nH]c(C(=O)N3CCNC(=O)CC3)cc12` [Example I-983], for which the IC50 was less than 100 nM.

In turn, `COc1ccccc1-c1cc(C2=CCCN(C(=O)CCn3ccnn3)C2)c(F)c2[nH]c(C(=O)N3CCC(OC4CCC4)CC3)cc12` [Example I-984] had an IC50 of less than 100 nM.

For the compound `COc1ccccc1-c1cc(C2=CCCN(C(=O)CCn3ccnn3)C2)c(F)c2[nH]c(C(=O)N3CCOCC3)cc12` [Example I-985], the half-maximal inhibitory concentration (IC50) was less than 100 nM.

Turning to `COc1ccccc1-c1cc(C2=CCCN(C(=O)CCn3ccnn3)C2)c(F)c2[nH]c(C(=O)N3CC4CCN(Cc5ccccc5)C4C3)cc12` (stereo not drawn) [Example I-987], the IC50 fell in the range of 1000 to 10000 nM.

With `COC(=O)N1CCN(C(=O)c2cc3c(-c4ccccc4OC)cc(C4=CCCN(C(=O)CCn5ccnn5)C4)c(F)c3[nH]2)CC1` [Example I-988], the IC50 was less than 100 nM.

In the case of `COc1ccccc1-c1cc(C2=CCCN(C(=O)CCn3ccnn3)C2)c(F)c2[nH]c(C(=O)N3CCN(S(C)(=O)=O)CC3)cc12` [Example I-989], the IC50 was less than 100 nM.

The values are drawn from US20250214977A1, “STAT6 INHIBITORS AND USES THEREOF” (Kymera Therapeutics, Inc., priority 2024, published 2025).
